The other results are listed elsewhere or left out.
Key:
Assay in all cases: glycan array binding signal (z-score within array); higher = stronger binding
Conditions in all cases: glycan notation: IUPAC condensed, linker removed
Gal(b1-4)Glc = target: Gal(b1-4)Glc
How it was run: (§1)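 Negative Z-scores can be read as non-binding. The Z-score is calculated within each array and then averaged across arrays of one protein sequence at different concentrations or buffers and across linkers. Arrays, 3228 in all, were curated from the Consortium for Functional Glycomics database and kept only where the protein sequence was available.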

Gal(b1-4)Glc6S = target: Gal(b1-4)Glc6S
How it was run: as §1

Gal(b1-4)GlcNAc = target: Gal(b1-4)GlcNAc
How it was run: as §1

[1] = target: Gal(b1-4)GlcNAc(a1-6)Gal(b1-4)GlcNAc
How it was run: as §1

Gal(b1-4)GlcNAc(b1-2)Man = target: Gal(b1-4)GlcNAc(b1-2)Man
How it was run: as §1

[2] = target: Gal(b1-4)GlcNAc(b1-2)Man(a1-3)Man(b1-4)GlcNAc(b1-4)GlcNAc
How it was run: as §1

[3] = target: Gal(b1-4)GlcNAc(b1-2)Man(a1-3)[Gal(b1-4)GlcNAc(b1-2)Man(a1-6)]Man(b1-4)GlcNAc(b1-4)GlcNAc
How it was run: as §1

[4] = target: Gal(b1-4)GlcNAc(b1-2)Man(a1-3)[Gal(b1-4)GlcNAc(b1-2)Man(a1-6)]Man(b1-4)GlcNAc(b1-4)[Fuc(a1-6)]GlcNAc
How it was run: as §1

[5] = target: Gal(b1-4)GlcNAc(b1-2)Man(a1-3)[Gal(b1-4)GlcNAc(b1-2)Man(a1-6)][Gal(b1-4)GlcNAc(b1-4)]Man(b1-4)GlcNAc(b1-4)[Fuc(a1-6)]GlcNAc
How it was run: as §1

[6] = target: Gal(b1-4)GlcNAc(b1-2)Man(a1-3)[Gal(b1-4)GlcNAc(b1-2)Man(a1-6)][GlcNAc(b1-4)]Man(b1-4)GlcNAc(b1-4)[Fuc(a1-6)]GlcNAc
How it was run: as §1

[7] = target: Gal(b1-4)GlcNAc(b1-2)Man(a1-3)[GlcNAc(b1-2)Man(a1-6)]Man(b1-4)GlcNAc(b1-4)GlcNAc
How it was run: as §1

[8] = target: Gal(b1-4)GlcNAc(b1-2)Man(a1-3)[GlcNAc(b1-4)][Gal(b1-4)GlcNAc(b1-2)Man(a1-6)]Man(b1-4)GlcNAc(b1-4)GlcNAc
How it was run: as §1

[9] = target: Gal(b1-4)GlcNAc(b1-2)Man(a1-3)[Man(a1-6)]Man(b1-4)GlcNAc(b1-4)GlcNAc
How it was run: as §1

[10] = target: Gal(b1-4)GlcNAc(b1-2)Man(a1-6)Man(b1-4)GlcNAc(b1-4)GlcNAc
How it was run: as §1

[11] = target: Gal(b1-4)GlcNAc(b1-2)Man(a1-6)[GlcNAc(b1-2)Man(a1-3)]Man(b1-4)GlcNAc(b1-4)GlcNAc
How it was run: as §1

[12] = target: Gal(b1-4)GlcNAc(b1-2)Man(a1-6)[Man(a1-3)]Man(b1-4)GlcNAc(b1-4)GlcNAc
How it was run: as §1

[13] = target: Gal(b1-4)GlcNAc(b1-2)[Gal(b1-4)GlcNAc(b1-4)]Man(a1-3)[Gal(b1-4)GlcNAc(b1-2)Man(a1-6)]Man(b1-4)GlcNAc(b1-4)GlcNAc
How it was run: as §1

[14] = target: Gal(b1-4)GlcNAc(b1-2)[Gal(b1-4)GlcNAc(b1-4)]Man(a1-3)[Gal(b1-4)GlcNAc(b1-2)[Gal(b1-4)GlcNAc(b1-6)]Man(a1-6)]Man(b1-4)GlcNAc(b1-4)GlcNAc
How it was run: as §1

[15] = target: Gal(b1-4)GlcNAc(b1-2)[Gal(b1-4)GlcNAc(b1-4)]Man(a1-3)[GlcNAc(b1-4)][Gal(b1-4)GlcNAc(b1-2)Man(a1-6)]Man(b1-4)GlcNAc(b1-4)GlcNAc
How it was run: as §1

[16] = target: Gal(b1-4)GlcNAc(b1-2)[Gal(b1-4)GlcNAc(b1-4)]Man(a1-3)[GlcNAc(b1-4)][Gal(b1-4)GlcNAc(b1-2)[Gal(b1-4)GlcNAc(b1-6)]Man(a1-6)]Man(b1-4)GlcNAc(b1-4)GlcNAc
How it was run: as §1

[17] = target: Gal(b1-4)GlcNAc(b1-2)[Gal(b1-4)GlcNAc(b1-6)]Man(a1-6)[Gal(b1-4)GlcNAc(b1-2)Man(a1-3)]Man(b1-4)GlcNAc(b1-4)GlcNAc
How it was run: as §1

[18] = target: Gal(b1-4)GlcNAc(b1-2)[Gal(b1-4)GlcNAc(b1-6)]Man(a1-6)[Gal(b1-4)GlcNAc(b1-2)Man(a1-3)]Man(b1-4)GlcNAc(b1-4)[Fuc(a1-6)]GlcNAc
How it was run: as §1

B1: Pwp3 (Candida glabrata) (protein)
chain: MGSSHHHHHHSSGLVPRGSHMASKNPVDFTTVCQFPDNFSKKPGFLATTARLGLWITGNSYKELLNYPGTFTLTTQQASTTTPNIQLRGTDLFTTIYGLTVYPLYLLVELQGYFVPTQSGMYTFSLTGSDDAAIIFIGNPSTFPCDAFKTWPQATANDITVTDSINPSRTLYMVKGVAYPLRIAYYNGLGNGVLNAAFTDPSGTKRTDWNGYIWQYDQCSTCTYK
Gal(b1-4)Glc
  glycan array binding signal (z-score): 0.166
Gal(b1-4)Glc6S
  glycan array binding signal (z-score): -0.95
Gal(b1-4)GlcNAc
  glycan array binding signal (z-score): 0.362
[1]
  glycan array binding signal (z-score): -0.211
Gal(b1-4)GlcNAc(b1-2)Man
  glycan array binding signal (z-score): -0.237
[2]
  glycan array binding signal (z-score): -0.306
[3]
  glycan array binding signal (z-score): -1.15
[4]
  glycan array binding signal (z-score): -0.297
[5]
  glycan array binding signal (z-score): -0.445
[6]
  glycan array binding signal (z-score): -0.02
[7]
  glycan array binding signal (z-score): -0.096
[8]
  glycan array binding signal (z-score): 0.003
[9]
  glycan array binding signal (z-score): 1.3
[10]
  glycan array binding signal (z-score): -0.162
[11]
  glycan array binding signal (z-score): -0.208
[12]
  glycan array binding signal (z-score): 0.511
[13]
  glycan array binding signal (z-score): -1.19
[14]
  glycan array binding signal (z-score): -0.044
[15]
  glycan array binding signal (z-score): -0.137
[16]
  glycan array binding signal (z-score): 0.215
[17]
  glycan array binding signal (z-score): -0.324
[18]
  glycan array binding signal (z-score): -0.106

From the supplement of paper PMC8728848
